B1: chr2:73747330:73747331:-_ENSMUSG00000018770_ENSMUST00000018914|mus_hu|FALSE|FALSE (ssRNA)
RNA: GGGAGUUCUACAGUCCGACGAUCUCCAAUACCAGCACCAGAACCAGCCACUCCUACUGUUGCAGCACCUGCACCAAUAAAUUUGGCAGCAGUAUCAAUGUCUCUGCUGAUUGCACUGGUCUGAAACUCCCUUUGGAUUAGCUGCAACAGAGGAUUGAGCAUCA
B2: chr19:5156467:5156468:-_ENSMUSG00000024855_ENSMUST00000025786|mus_mus|FALSE|FALSE (ssRNA)
RNA: GGGAGUUCUACAGUCCGACGAUCUUUUAUUUCUGCCACUGGCACAGAGACAUCCUUCACAUUGCUGUGCAGGCCAAGUACUAAAGCGCCCUCAUUAGGGUGUUGCAUCACCUCUGCCAUGUUGAUGAGUCCCACAGCUAAGGUCAACAGAGGAUUGAGCAUCA
B3: chr9:135205225:135205226:-_ENSG00000107290_ENST00000224140|hu_mus|FALSE|FALSE (ssRNA)
RNA: GGGAGUUCUACAGUCCGACGAUCUGUAGAAGUUGAAUCCCCAAAAGUGCUAUAUUGGGGCAUUUUGAAUUUUAUGUUUCUAAUUAUUUGUUUCAAACACAUUUGUAACUCAUGGGUUUCUUGACCAGUCAAUUGCCAACCCAGCAACAGAGGAUUGAGCAUCA
B4: chr5:102612083:102612084:+_ENSG00000181751_ENST00000319933|hu_mus|FALSE|FALSE (ssRNA)
RNA: GGGAGUUCUACAGUCCGACGAUCUAGAUUGAGGUAGUCCAGAGAUUUGGAGUGAGCCCUCUUACCUUUAAGAAGACAUAGAGGCAAGGGCCCAUGGAGGGCCUUAUAAGGUUCAUAAGGUAAGGGUUUGGUGCACUUGUCUCCCAACAGAGGAUUGAGCAUCA
B5: chr9:45784209:45784210:-_ENSMUSG00000003131_ENSMUST00000172450|mus_mus|motif|central (ssRNA)
RNA: GGGAGUUCUACAGUCCGACGAUCGGAGUCCCCCACAAACAGCACAUCUGGUUCUUUGUCUUUACAGUCCAGAACAAACCGGUUAUGCUGAGACAUCCACCUGUCAUCUCCUUGAAUAUCUUCUGCGGCAUGUGGAAUAGCUGCCAACAGAGGAUUGAGCAUCA
B6: chr14:76904430:76904431:+_ENSMUSG00000022010_ENSMUST00000022587|mus_mus|mus_mus_mus_hu_True|18_18 (ssRNA)
RNA: GGGAGUUCUACAGUCCGACGAUCUGCAGCCAAAAACACCCUCGUGGAAAAAAAGAGGGAACACCAGCAGCCUUGUAUAAGCUAGAUAAAAUCUUCUGGCUUUCCGCAGCCCAGGGAGUGAGAACGGACGGCAGCCCUAAUUUACAACAGAGGAUUGAGCAUCA
B7: chr7:54823571:54823572:-_ENSG00000132432_ENST00000352861|hu_mus|hu_hu_hu_mus_False|8_88 (ssRNA)
RNA: GGGAGUUCUACAGUCCGACGAUCUCCCAUGAUAGCAAAUCCUAUAGCUGUUGCCAUGGCAAUCUUCUGGAAUUCUUUUCUGUCGGGUUUGGUGCAUCUUUUAACCAGCCGAAUUGAGUCCUUUACAAACUGCCGACUGGGCUCCAACAGAGGAUUGAGCAUCA
B8: 166731569_166740681_71_5pUTR_ENSMUSG00000002718_ENSMUST00000002790|mouse|control|control (ssRNA)
RNA: GGGAGUUCUACAGUCCGACGAUCAUGACUCUGAAUCUCGUGGGGACGCCGAGACCGAGGAGGGAAUCCCAAGCGAGAGCUGCAGCCGACACUACCCCACUCCAGCCGCUGCUCCGCCUCACAUUCAAACCCUGGCAAAAUGGCCAACAGAGGAUUGAGCAUCA
B9: chr11:102767452:102767453:-_ENSMUSG00000051378_ENSMUST00000021311|mus_mus|motif|central (ssRNA)
RNA: GGGAGUUCUACAGUCCGACGAUCGGUGAGGAAGGCAGGCUAGGGACUCUUGGCAUUGGCAGCUGUAGACAAGAGAAGGCGGUUGGCGAAUCAGAACAAUCGUGGAUGCCAGGAGUCCCUCGUGGUCAGAACACCCAGUUAAUACAACAGAGGAUUGAGCAUCA
B10: 93805626_93805746_2619_3pUTR_ENSMUSG00000059474_ENSMUST00000107854|mouse|control|control (ssRNA)
RNA: GGGAGUUCUACAGUCCGACGAUCGCAAUAAAACGUCAGCGAGCACAAUUAAUGACCCCUUCCGUGAUCUACAUGGUGAUGAGCCCUCUGUGAGGGGUUCAGUUGCAUAUUUUCGCAGCAAAGGAAGCUGGAGAUGUGACUGGCCAACAGAGGAUUGAGCAUCA
B11: chr11:55313332:55313333:+_ENSMUSG00000018583_ENSMUST00000018727|mus_hu|FALSE|FALSE (ssRNA)
RNA: GGGAGUUCUACAGUCCGACGAUCUCUUUAAAAGUCCGUUAUUCCUAAAAUAUCAUUCCACAAAAUUGGAAGUGAAAGACUAAAGGUCAGGAAAGGGAAGAGAGGGAGAGGGAGCACACACCAUUAACACACAAAAAAAGUAAACAACAGAGGAUUGAGCAUCA
B12: chr19:8913615:8913616:-_ENSMUSG00000071658_ENSMUST00000096259|mus_hu|mus_mus_mus_hu_False|18_88 (ssRNA)
RNA: GGGAGUUCUACAGUCCGACGAUCAGGGUACCAAAACCUUCUGCCUGAGAUAGGUGCCCCACCCAGUAGGGAGUUGCAGCUGAAAGUAUCUGAUGCAGAAGCAGUGACUAUACGAAAGGUCACUAGAGGGGAGGGCCAGGCCAGCAACAGAGGAUUGAGCAUCA
B13: chr6:40197388:40197389:+_ENSMUSG00000057716_ENSMUST00000061740|mus_mus|FALSE|FALSE (ssRNA)
RNA: GGGAGUUCUACAGUCCGACGAUCGCCUUGUCAGUUUGGAUGGCACCUCAGUUUGGGUGCUAGCCUCUAAGAUAGAUAGCUAUUUUGGGAUUCAUGGCCUUGAAGAUCAAGAGGAAAGGGACGAGAAUGGAAAGAGUCAAGAGUCAACAGAGGAUUGAGCAUCA
B14: 81681878_81681998_755_CDS_ENSMUSG00000048546_ENSMUST00000050467|mouse|control|control (ssRNA)
RNA: GGGAGUUCUACAGUCCGACGAUCCUUCUCGCCAAUCUGGUAGGAUACCUCGAAAGGGUCAAUCCAGACACUCAGCUCUUCGGGCACGUUGGCACGCACAUCCUCCACAGCUAGGCCGCUCCGCUUGGCAGCCAGCUCCACCACCAACAGAGGAUUGAGCAUCA

Some of the results follow.

The assay concerns the target T1, UNK ZnF1-3 (human, UniProt Q9C0B0 31-174).
T1 sequence: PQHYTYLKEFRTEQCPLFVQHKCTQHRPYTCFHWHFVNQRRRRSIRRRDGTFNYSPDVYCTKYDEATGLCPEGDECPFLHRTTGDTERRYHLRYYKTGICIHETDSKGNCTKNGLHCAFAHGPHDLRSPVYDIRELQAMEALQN
Briefly: nsRBNS (natural sequence RNA bind-n-seq); RBNS binding buffer (assumed for nsRBNS): 25 mM Tris pH 7.5, 150 mM KCl, 3 mM MgCl2, 0.01% Triton X-100, 500 ug/ml BSA, 20 U/ml SUPERase-In, 4 C; UNK is unkempt and MSI1 is Musashi-1; names of the RNAs are library labels; protein concentration not given here; high values mean tight binding.
Consider B1, for which the binding signal turned out to be 0.838 enrichment R. The same measure for B2: 0.866 enrichment R; for B3: 0.834 enrichment R. The same measure for B4: 0.593 enrichment R; for B5: 0.52 enrichment R; for B6: 1.77 enrichment R. Under B7 stands 0.637 enrichment R.

For B8, the binding signal came out at 1.61 enrichment R. Molecule B9 displayed a binding signal of 1.07 enrichment R. Under B10 stands 1.43 enrichment R; under B11, 3.03 enrichment R; under B12, 1.21 enrichment R. Under B13 stands 1.53 enrichment R; under B14, 0.957 enrichment R.

For the origin of these results see publication PMC12136788.
